Over roughly 33,000 sequences, “E-score (-0.5 to 0.5)” has its median near -0.043; the highest 2% begin near 0.37. This is one part of the list.

Here are results for 86 sequences from the supplement of paper PMC3334620.

This test addresses T1, Upc2 (UniProt Q12151).
T1 sequence: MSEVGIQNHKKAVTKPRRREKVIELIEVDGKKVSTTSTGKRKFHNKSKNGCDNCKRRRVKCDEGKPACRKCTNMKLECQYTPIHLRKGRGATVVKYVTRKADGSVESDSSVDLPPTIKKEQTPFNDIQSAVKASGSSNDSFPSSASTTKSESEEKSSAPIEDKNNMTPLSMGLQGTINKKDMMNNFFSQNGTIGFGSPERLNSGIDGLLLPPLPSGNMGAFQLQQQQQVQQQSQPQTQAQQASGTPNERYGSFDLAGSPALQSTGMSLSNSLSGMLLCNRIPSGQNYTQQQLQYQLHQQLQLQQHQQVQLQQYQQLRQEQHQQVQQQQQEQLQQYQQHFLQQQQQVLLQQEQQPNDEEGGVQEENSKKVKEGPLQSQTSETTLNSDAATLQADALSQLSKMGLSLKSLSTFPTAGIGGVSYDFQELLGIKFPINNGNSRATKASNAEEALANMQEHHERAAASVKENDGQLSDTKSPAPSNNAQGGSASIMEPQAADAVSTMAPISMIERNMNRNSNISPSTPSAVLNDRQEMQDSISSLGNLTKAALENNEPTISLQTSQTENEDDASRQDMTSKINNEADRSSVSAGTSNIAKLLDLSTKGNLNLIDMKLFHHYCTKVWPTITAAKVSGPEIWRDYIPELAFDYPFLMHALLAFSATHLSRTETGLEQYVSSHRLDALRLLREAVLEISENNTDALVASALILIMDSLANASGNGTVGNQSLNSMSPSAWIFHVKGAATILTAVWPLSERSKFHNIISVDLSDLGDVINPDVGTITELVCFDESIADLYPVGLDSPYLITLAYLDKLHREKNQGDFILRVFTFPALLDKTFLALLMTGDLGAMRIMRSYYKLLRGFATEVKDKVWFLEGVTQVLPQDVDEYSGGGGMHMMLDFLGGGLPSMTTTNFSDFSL
As to the kind of experiment: PBM E-score (8-mer binding enrichment) (E-score (-0.5 to 0.5)); higher = stronger / more preferred TF binding; most listed sequences are background and not binding sites. The following applies: protein concentration: 200 nM; construct: GST-full length. A digest of the protocol: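 Bound GST-tagged yeast transcription factors, applied at about 100-200 nM to double-stranded universal all-10-mer Agilent arrays, were detected with fluorescent anti-GST. Scans were normalised with masliner. A modified Wilcoxon-Mann-Whitney statistic, the E-score, was assigned to each ungapped eight-base word pooled with its reverse complement by the Universal PBM Analysis Suite.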
Consider GCGCTGTA, for which the “PBM E-score” value is -0.0139.

For the sequence GCACGAAA, the “PBM E-score” value was determined as 0.127.

On to ATTCGTGA, for which the “PBM E-score” value amounted to 0.0183.

On to GAGTGCCA, for which the “PBM E-score” value was -0.207.

As to ATAGAGAT, the “PBM E-score” value worked out at 0.17.

GCAGCCGA: the “PBM E-score” value was -0.0888.

ATCATATC: the “PBM E-score” value is 0.0735.

Regarding GACAATGA, the “PBM E-score” value is -0.175.

As to GCCAAGTA, the “PBM E-score” value was -0.0175.

As for CGCTACTA, the “PBM E-score” value came to 0.0957.

As to TGCTGACA, the “PBM E-score” value was -0.162.

Take CGCAAAAA: the “PBM E-score” value turned out to be 0.192.

On to CAAGAATC, for which the “PBM E-score” value was -0.0877.

As to ATCAACGA, the “PBM E-score” value was determined as 0.184.

For the sequence CAGGACAC, the “PBM E-score” value is -0.306.

For TATAATCA, the “PBM E-score” value was determined as 0.0413.

For AACAACCG, the “PBM E-score” value was 0.176.

Take AAATATAT: the “PBM E-score” value worked out at 0.0465.

GTAGAAAA: the “PBM E-score” value was determined as 0.137.

In the case of TGATCTAA, the “PBM E-score” value was 0.0543.

Take AGGCTTCC: the “PBM E-score” value is -0.133.

In the case of CCCGTGAA, the “PBM E-score” value was 0.0941.

TTGGTAAA: the “PBM E-score” value came to 0.169.

With GAATCGCC, the “PBM E-score” value was -0.0174.

For the sequence CGGATGTA, the “PBM E-score” value is 0.118.

As for AGGAGGCA, the “PBM E-score” value was -0.283.

CTTGACTC: the “PBM E-score” value is -0.0404.

On to GCTGTGGA, for which the “PBM E-score” value was -0.207.

Consider ACAGACGG, for which the “PBM E-score” value is -0.125.

On to AAATGGCC, for which the “PBM E-score” value was -0.187.

As for ACTTACGG, the “PBM E-score” value came to 0.194.

With ATGAGGCC, the “PBM E-score” value is -0.136.

For AGCCGATA, the “PBM E-score” value is -0.157.

Regarding GGTCTGAA, the “PBM E-score” value is 0.0866.

Consider CACGGTTA, for which the “PBM E-score” value came out at 0.0532.

With CCATAGAA, the “PBM E-score” value is -0.25.

Take CAAATTCC: the “PBM E-score” value was found to be 0.0123.

As to CAAAGGGA, the “PBM E-score” value is -0.161.

Regarding TGCGTTAA, the “PBM E-score” value worked out at 0.238.

Consider ACGGCGGA, for which the “PBM E-score” value is 0.00882.

In the case of CCGGGCCC, the “PBM E-score” value is -0.113.

As to AGTACCAA, the “PBM E-score” value was -0.0772.

In the case of AGCACGTC, the “PBM E-score” value came out at 0.00589.

Take ATACACAC: the “PBM E-score” value was determined as 0.0394.

Turning to AGTCGTGG, the “PBM E-score” value is -0.163.

Regarding GAACAAAC, the “PBM E-score” value was 0.133.

As to AACATCAC, the “PBM E-score” value is -0.137.

In the case of GGAATCGA, the “PBM E-score” value is -0.225.

As to GTATCACA, the “PBM E-score” value is 0.199.

For the sequence TTACAGAA, the “PBM E-score” value was -0.0738.

As to CTGTTTGC, the “PBM E-score” value was found to be 0.132.

On to CTACATGA, for which the “PBM E-score” value was -0.185.

On to CGATTGAA, for which the “PBM E-score” value came out at 0.0171.

As for AGGCCACG, the “PBM E-score” value is -0.0254.

Regarding TAGCGCGA, the “PBM E-score” value is 0.0682.

Turning to CGATAGTA, the “PBM E-score” value came out at 0.00399.

ACGGGAAC: the “PBM E-score” value came to 0.262.

Take AGAAGGAA: the “PBM E-score” value is -0.071.

Turning to AGCGTTAA, the “PBM E-score” value turned out to be 0.153.

As for ACGTGTTA, the “PBM E-score” value was determined as 0.137.

For AGATAGCA, the “PBM E-score” value is -0.264.

Consider CTAGGCGA, for which the “PBM E-score” value was -0.0759.

In the case of GACTTTAC, the “PBM E-score” value is 0.206.

ATTGTTCA: the “PBM E-score” value is -0.0472.

For ACTAAGCA, the “PBM E-score” value was -0.113.

As to CCTGCTGC, the “PBM E-score” value was -0.266.

Turning to GAAGTGTC, the “PBM E-score” value is -0.018.

As for ACTGAGTG, the “PBM E-score” value was -0.034.

As for AGGTTTCA, the “PBM E-score” value is -0.202.

Take TACTATCA: the “PBM E-score” value is -0.0341.

Take ACCCGCGT: the “PBM E-score” value came out at 0.137.

Regarding GTTTCGCA, the “PBM E-score” value was determined as 0.157.

For CATATACC, the “PBM E-score” value is -0.0116.

With GGGGCAGA, the “PBM E-score” value is -0.11.

As for ATCAGAGA, the “PBM E-score” value is -0.167.

Consider CATTCTAA, for which the “PBM E-score” value is -0.0331.

For the sequence AATCACTC, the “PBM E-score” value is -0.0563.

On to ACGCACCA, for which the “PBM E-score” value is -0.00555.

For the sequence CGCTCGCA, the “PBM E-score” value worked out at 0.26.

Take AAAACAGA: the “PBM E-score” value is -0.0135.

As to ACTCTGTC, the “PBM E-score” value is -0.0631.

For the sequence GCCACGAA, the “PBM E-score” value was -0.16.

On to ATACTTTC, for which the “PBM E-score” value is -0.0413.

Consider CTTGATAA, for which the “PBM E-score” value was -0.0756.

For GTCAGCAC, the “PBM E-score” value was -0.108.

Consider TAATCCAA, for which the “PBM E-score” value was -0.0801.
